This note sets out measurements from the RNAGym collection of RNA variant scans (doi:10.1093/nar/gkz1192).

Read counts are not given, so values of variants with three or more changes are uncertain.

B1: CPEB3 Ribozyme (parent)
chain: UAACAGGGGGCCACAGCAGAAGCGUUCACGUCGCAGCCCCUGUCAGAUUCUGGUGAAUCUGCGAAUUCUGCUGUAUAUCUC

The variants in this series derive from B1. Description: self-cleavage, relative activity (ratio to wild type); higher = more cleavage; in vitro, sequencing. An outline of the steps:
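After error-prone PCR and barcoding, CPEB3 ribozyme mutant libraries were transcribed with T7 RNA polymerase at 37°C for 5 hours, then given 15 min with DNase I before an EDTA stop, and they cleaved during both steps. Reverse transcription with template switching preceded Illumina sequencing. Relative activity divides a variant's cleaved/total read fraction by the unmutated ribozyme's. At least 5 reads were required per variant, and three batches were averaged.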
For the variant A3G G8C A21G U26C, the self-cleavage is 0.03. Turning to A3G G7A G10C U54A U60C G63A U67A, the self-cleavage was determined as 0.04. In the case of A3G C12A A65G, the self-cleavage is 0.77. In the case of A3G U25C C27G U43A it was 0.09; in that of A3G U26C A28U U31C, 0.29. In the case of A3G G24U U72A A77U it was 0.23; in that of A3G G9A A20C A77G, 0.59.

On to A3G C14A A28U G30A U67C, for which the self-cleavage worked out at 0.15. The same measure for A3G C12A A18G: 0.58; for A3G C12U A13G: 0.81. Turning to A3G U25C A28G G33C C68A U78A, the self-cleavage was 0.05. As for A3G G9A U76C A77G, the self-cleavage was determined as 0.13. As for A3G U41A U49C A75G, the self-cleavage was determined as 0.3.

As for A3G G8U G61C U74C, the self-cleavage amounted to 0.09. For the variant A3G G9U G19U U31C G61U, the self-cleavage worked out at 0.17. For the variant A3G U26C U31C U49A, the self-cleavage is 0.51. Consider A3G G10A A18U A45U G52C U72A A77G, for which the self-cleavage amounted to 0.07.

For A3G U26A U80C, the self-cleavage was determined as 0.92. On to A3G G24A A28G U31C U54A U58C U72C, for which the self-cleavage came out at 0.29.

Take A3G U26A C62G: the self-cleavage was 0.2.

As to A3G G33A U72C, the self-cleavage was 0.4. In the case of A3G G10A U25A A28G G33U it was 0.08; in that of A3G G9A A20G C29A A45C A56G, 0.08. In the case of A3G G16C A45U U48C U49C it was 0.37; in that of A3G G10A U26C U31C A47G, 0.12.

As to A3G C17U U25A, the self-cleavage came to 0.45. Take A3G G30U A35G A56G A65G U80A: the self-cleavage stood at 0.19. Regarding A3G C37A U69A, the self-cleavage was found to be 0.28.

With A3G G10A A18U U31A G52U U72A A77G, the self-cleavage amounted to 0.04. The same measure for A3G U25A G33U U43C U69C: 0.19.

A3G G52U A56U: the self-cleavage was found to be 0.76. In the case of A3G U31C G33A G63U A64G it was 0.07.

A3G G19C U41C: the self-cleavage worked out at 0.07. The same measure for A3G C27U U41C: 0.37; for A3G U31A U43C: 0.39; for A3G G8A A15G C29U U41C U43A: 0.39. In the case of A3G C12U A56G U58C G61A U67C U74C it was 0.49. In the case of A3G C12A U43C A75U U76G it was 0.29; in that of A3G U26A A77G, 0.98. Take A3G G16U C39A C81G: the self-cleavage came out at 0.08.

Take A3G G9A U58A U72C U78A: the self-cleavage turned out to be 0.26. Turning to A3G U25C U31C G46C U49C, the self-cleavage turned out to be 0.02. For A3G U43C U49A U51C U54A U72C, the self-cleavage came out at 0.12. On to A3G U26C U41G A47G U51A U72C, for which the self-cleavage was determined as 0.04. The same measure for A3G G22U U31C U41A U51C A65G A77G: 0.04; for A3G C29U A47U A75G: 0.22. Consider A3G C23G U25C, for which the self-cleavage was found to be 0.29. Turning to A3G G8A A18G A20G U76C, the self-cleavage is 0.27.

Regarding A3G G6A A18G U67C, the self-cleavage was found to be 0.22.

In the case of A3G C12G C38G A45U A64G, the self-cleavage amounted to 0.07. For the variant A3G U26A G46A A77U, the self-cleavage stood at 0.19. The same measure for A3G G9U A15G U69C U76C: 0.17; for A3G C17U A20U U31A A64G U74A: 0.3. As for A3G U43A A47G, the self-cleavage worked out at 1.08. In the case of A3G U26C U31C U48A, the self-cleavage came out at 0.15. In the case of A3G C11G U31C A45U, the self-cleavage was determined as 0.05.

With A3G C37A U66C, the self-cleavage amounted to 0.13. Take A3G U25C A65G: the self-cleavage came out at 0.65. The same measure for A3G C12A C38G A64U: 0.33; for A3G U31C U48A: 0.35; for A3G U25C G55U: 0.61. For A3G G42A U78C, the self-cleavage turned out to be 0.53. For the variant A3G G8A U76C, the self-cleavage amounted to 0.1. As to A3G C17G U69A U72A, the self-cleavage came out at 0.13. In the case of A3G G6C A77U, the self-cleavage came to 0.23. For A3G G22C U25A, the self-cleavage amounted to 0.2. With A3G G6A U80A, the self-cleavage amounted to 0.7. Consider A3G U26C U51A A57G U76A, for which the self-cleavage was 0.09. The same measure for A3G G6A U26C C38U A57G U58C: 0.06; for A3G G19C G33C A56U: 0.33. Turning to A3G U43C U51C, the self-cleavage worked out at 0.4. The same measure for A3G U25C U41A A64G U76C: 0.29; for A3G U25C A28G A57U U76A: 0.05; for A3G C12A A57U U66C: 0.21. Take A3G C40U U48A U51G A56U: the self-cleavage was 0.29. With A3G U31C A35G, the self-cleavage came out at 1.19. In the case of A3G G6U U51G A57G U58C it was 0.45; in that of A3G G19U C62U U76A, 0.05. Turning to A3G C11U U58C, the self-cleavage amounted to 0.1.

With A3G C17U A18G A28U, the self-cleavage came to 0.16. In the case of A3G G30A C39U it was 0.41; in that of A3G G8U U51C, 0.09; in that of A3G G10A U43A, 0.16. The same measure for A3G G6A A28G U67C: 0.05. In the case of A3G C39A U41C U80C it was 0.41. In the case of A3G C12A A13G U51C A56G U60C A65G, the self-cleavage is 0.33. In the case of A3G U26C G46A U54C U72A it was 0.05; in that of A3G U31A U54A, 0.74; in that of A3G C40U U67C U72A, 0.15. In the case of A3G G16C A56G A75U it was 0.47; in that of A3G U25A C27U, 0.22. In the case of A3G U31C A45G U80A it was 0.49.

Consider A3G U41G A56G U69C, for which the self-cleavage is 0.35. For the variant A3G G10C A15U U48C G61A, the self-cleavage stood at 0.25.

As for A3G C23U A45U A64U U67A, the self-cleavage is 0.13. In the case of A3G U48C U49C U67C U74C U76C it was 0.23. In the case of A3G C11G U43G G70A it was 0.13; in that of A3G G10A A35G A57U, 0.22.

Regarding A3G U25C U31C C39A U48C U51G U72C, the self-cleavage came out at 0.1. In the case of A3G U26C A28C A56G, the self-cleavage amounted to 0.49. Regarding A3G C68A U69C U80A, the self-cleavage stood at 0.27. In the case of A3G U26A G55C it was 0.57; in that of A3G U43C U58A, 0.26. On to A3G G9A A35G U41C C59A, for which the self-cleavage is 0.21.

Regarding A3G U26C U41A U76A, the self-cleavage is 0.6.

Turning to A3G C23A A64G G73U, the self-cleavage was 0.08. On to A3G C14A U31A C62G A64U, for which the self-cleavage stood at 0.16.

In the case of A3G U25C A28U, the self-cleavage amounted to 0.69.

Regarding A3G G24U A35G U41A G46C U48C U74A, the self-cleavage amounted to 0.32. As to A3G U41C A65G C71G U74C C81A, the self-cleavage was found to be 0.37. The same measure for A3G C32U C40G U60G: 0.13. In the case of A3G U41A A57G it was 0.25; in that of A3G G52A U66C C79G, 0.49. Regarding A3G U26C U41C, the self-cleavage was found to be 0.69. In the case of A3G G8A A21G A65G U78C it was 0.15; in that of A3G C11U U25C, 0.69. The same measure for A3G U26A A57G U69C: 0.21; for A3G U26C U69C A77G: 0.32. In the case of A3G U25C U43C U66C U76C, the self-cleavage worked out at 0.47.

A3G G10A A15C A18U A28G U49C U51A: the self-cleavage stood at 0.13. A3G C23A U72A U80C: the self-cleavage turned out to be 0.17. In the case of A3G G7C U31C U41G it was 0.07; in that of A3G C34G U41C G55U, 0.8; in that of A3G U25C C32U U60C U80A, 0.1. In the case of A3G C27U A28U A56G U69C it was 0.43; in that of A3G U31C U60C A64G, 0.19; in that of A3G U31C A35U A45C G63C, 0.1. In the case of A3G U25A U43C A75U U80C it was 0.05; in that of A3G G9A A18G A45C U72C, 0.05; in that of A3G U43A A45G, 1.06. Take A3G C11U U25C A35U G73A: the self-cleavage stood at 0.48.

On to A3G G7U U41C A47G G63C U80C, for which the self-cleavage came to 0.1. For the variant A3G C50A A56G, the self-cleavage amounted to 0.51. Consider A3G G7U A64G U69C, for which the self-cleavage was found to be 0.08. The same measure for A3G G10U A15G U43C A64G: 0.37; for A3G C23A U41A: 0.33. The same measure for A3G U41C U69C A75U: 0.5; for A3G U26A G30A: 0.54; for A3G C44A A77U: 0.31. On to A3G G8A A56U, for which the self-cleavage was 0.48.

Regarding A3G U43C C79A, the self-cleavage worked out at 0.52.

On to A3G G8U A21G C23A A28G U41C U69A, for which the self-cleavage turned out to be 0.06.

Take A3G U26C A56G U66A U69A: the self-cleavage amounted to 0.14.

A3G U25C A47G U72G: the self-cleavage was 0.07. Consider A3G C14U A21G U80A, for which the self-cleavage came to 0.99. The same measure for A3G U26C A64U: 0.16. The same measure for A3G U48C G61C: 0.07; for A3G C17U U76C C81U: 0.97. In the case of A3G U41A U54A A56G it was 0.1.

Take A3G U31C U60C A64G U67C U78C: the self-cleavage was found to be 0.14.

As for A3G C27A G33A A64U U76C A77U, the self-cleavage stood at 0.07. In the case of A3G U25A U26C U43A U58C it was 0.19; in that of A3G U41G U58A U69C U74A, 0.09. The same measure for A3G U26C C40U A47G U72A: 0.05; for A3G U43A U58C: 0.47; for A3G U41C A45G A56U: 0.63. In the case of A3G G8A A57G it was 0.27.

On to A3G G10C A65G, for which the self-cleavage stood at 0.44. In the case of A3G G9U A15G U41A it was 0.09; in that of A3G U25C U41A A45G U80A, 0.12.

Regarding A3G G7A U25G, the self-cleavage worked out at 0.14. On to A3G U43C U72C U78C, for which the self-cleavage amounted to 0.17. As to A3G U26C A57G, the self-cleavage came to 0.3. The same measure for A3G U25G A65G U67C U69G: 0.24; for A3G G30U A57C A65G U74C: 0.11. Consider A3G G33C A56U U60C U78C, for which the self-cleavage amounted to 0.08. The same measure for A3G G63A U66C: 0.6.
